{
  "source": "the supplement of paper PMC9446081",
  "note": "Hit rate of the full screen: of about 39,000 compounds, about 220 (0.56%) showed activity. Some of the results follow.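 Also: static incubation at 37 °C against the wild-type strain, values averaged over two biological replicates.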",
  "data": [
    {"tested_on": "Escherichia coli K-12 BW25113", "assay": "relative growth (OD600 normalised to plate interquartile mean) (fraction); higher = less growth inhibition, active = 0.2 or less", "settings": "50 µM; LB; incubation time: overnight (16-24 h)", "values": [
      {"smiles": "CN(C)Cc1cn(CC[C@@H]2CC[C@@H](NC(=O)Cc3cccnc3)[C@@H](CO)O2)nn1", "relative growth": "inactive: 1.01"},
      {"smiles": "C[C@@H]1CCCCO[C@@H](CN(C)Cc2ccccc2)[C@H](C)CN([C@@H](C)CO)C(=O)c2cc(NC(=O)CCC(F)(F)F)ccc2O1", "relative growth": "inactive: 1.01"},
      {"smiles": "C[C@H]1CN([C@@H](C)CO)S(=O)(=O)c2ccc(C#CCN(C)C)cc2O[C@@H]1CN(C)C(=O)Nc1ccccc1F", "relative growth": "inactive: 1.02"},
      {"smiles": "COc1ccc(S(=O)(=O)Nc2ccc3c(c2)C(=O)N([C@@H](C)CO)C[C@@H](C)[C@@H](CN(C)C(=O)C2CCCCC2)OCCCC[C@H](C)O3)cc1", "relative growth": "inactive: 1"},
      {"smiles": "C=CCC[C@@H](Cc1ccc(F)cc1)C(=O)O[C@@H](CNC(=O)[C@@H](CC=C)CC(=O)N[C@@H](CO)Cc1ccccc1)c1ccccc1", "relative growth": "inactive: 0.991"},
      {"smiles": "Cc1ccc(-n2cnc3cc(NCc4cccs4)ccc32)cc1", "relative growth": "inactive: 0.977"},
      {"smiles": "C[C@@H]1CCCCO[C@@H](CN(C)C(=O)NC2CCCCC2)[C@@H](C)CN([C@H](C)CO)C(=O)c2cc(NC(=O)NC3CCCCC3)ccc2O1", "relative growth": "inactive: 1.01"},
      {"smiles": "C[C@H]1CN([C@@H](C)CO)C(=O)c2cc(NS(=O)(=O)c3ccc(F)cc3)ccc2O[C@@H]1CN(C)Cc1ccc(Cl)c(Cl)c1", "relative growth": "inactive: 0.904"},
      {"smiles": "O=C(C[C@@H]1CC[C@H]2[C@@H](COC[C@H](O)CN2S(=O)(=O)c2cccc(Cl)c2)O1)NCc1ccncn1", "relative growth": "inactive: 0.983"},
      {"smiles": "C[C@@H]1CCCCO[C@@H](CN(C)Cc2ccc(Cl)c(Cl)c2)[C@H](C)CN([C@H](C)CO)C(=O)c2cc(NC(=O)Nc3ccc4c(c3)OCO4)ccc2O1", "relative growth": "inactive: 0.993"},
      {"smiles": "C[C@@H]1CN([C@H](C)CO)C(=O)Cc2cc(NC(=O)Cc3ccccc3)ccc2O[C@H]1CN(C)Cc1ccc(-c2ccccc2)cc1", "relative growth": "inactive: 1.02"},
      {"smiles": "O=C(C[C@@H]1C[C@@H]2c3cc(NS(=O)(=O)c4ccc(F)cc4)ccc3O[C@@H]2[C@@H](CO)O1)NCc1ccccn1", "relative growth": "inactive: 0.987"},
      {"smiles": "COCC#Cc1ccc2c(c1)O[C@H](CN(C)S(=O)(=O)c1cccc(F)c1)[C@H](C)CN([C@@H](C)CO)S2(=O)=O", "relative growth": "inactive: 1.02"},
      {"smiles": "C[C@@H]1CCCCO[C@H](CN(C)S(=O)(=O)c2ccccc2)[C@@H](C)CN([C@H](C)CO)C(=O)c2cc(NC(=O)Nc3ccc(C(F)(F)F)cc3)ccc2O1", "relative growth": "inactive: 0.824"},
      {"smiles": "C[C@H]1CN([C@@H](C)CO)C(=O)Cc2cc(NC(=O)Nc3ccc(F)cc3)ccc2O[C@H]1CN(C)Cc1ccc(Cl)c(Cl)c1", "relative growth": "inactive: 1"},
      {"smiles": "C[C@H]1CCCCO[C@@H](CN(C)Cc2ccc3c(c2)OCO3)[C@@H](C)CN([C@@H](C)CO)C(=O)c2cc(NS(=O)(=O)c3ccccc3)ccc2O1", "relative growth": "inactive: 1.02"},
      {"smiles": "CCNC(=O)C[C@H]1C=C[C@H](NC(=O)C2CCOCC2)[C@H](CO)O1", "relative growth": "inactive: 0.991"},
      {"smiles": "CN1CCN(C(=O)C[C@@H]2CC[C@@H]3[C@H](COc4ccc(NC(=O)c5cccs5)cc4C(=O)N3C)O2)CC1", "relative growth": "inactive: 0.977"},
      {"smiles": "O=C(NCc1nc2ccccc2[nH]1)C1=C[C@H](c2ccc(Br)cc2)C[C@H](OCc2ccc(CO)cc2)O1", "relative growth": "inactive: 0.983"},
      {"smiles": "C[C@@H]1CN([C@H](C)CO)C(=O)c2cc(NC(=O)Cn3cnnn3)ccc2O[C@H]1CN(C)S(C)(=O)=O", "relative growth": "inactive: 1.01"},
      {"smiles": "C[C@H]1CN([C@@H](C)CO)C(=O)c2cc(NC(=O)C3CCCCC3)ccc2O[C@H]1CN(C)Cc1ccc(Cl)c(Cl)c1", "relative growth": "inactive: 0.987"},
      {"smiles": "C[C@@H]1CN([C@H](C)CO)C(=O)c2cc(NS(=O)(=O)c3cn(C)cn3)ccc2O[C@H]1CN(C)C(=O)Nc1ccc(F)cc1", "relative growth": "inactive: 1.02"},
      {"smiles": "CO[C@H](CN(C)C(=O)C1CCOCC1)[C@H](C)CN(C(=O)Nc1ccc(C(F)(F)F)cc1)[C@@H](C)CO", "relative growth": "inactive: 0.938"},
      {"smiles": "C[C@@H]1CCCCO[C@@H](CN(C)C(=O)C2CCCCC2)[C@H](C)CN([C@@H](C)CO)C(=O)c2cc(NC(=O)Cc3ccccc3)ccc2O1", "relative growth": "inactive: 0.999"},
      {"smiles": "C[C@H](CO)N1C[C@H](C)[C@H](CN(C)Cc2ccc(C(F)(F)F)cc2)OCCCC[C@H](C)Oc2ccc(NS(=O)(=O)c3cn(C)cn3)cc2C1=O", "relative growth": "inactive: 0.987"},
      {"smiles": "COc1ccccc1C#Cc1ccc2c(c1)O[C@H](CN(C)Cc1cncnc1)[C@H](C)CN([C@@H](C)CO)S2(=O)=O", "relative growth": "inactive: 1.01"},
      {"smiles": "Cc1noc(C)c1NC(=O)Nc1ccc2c(c1)C(=O)N([C@H](C)CO)C[C@H](C)[C@@H](CN(C)C(=O)Nc1c(C)noc1C)OCCCC[C@H](C)O2", "relative growth": "inactive: 1"},
      {"smiles": "C[C@@H]1CN([C@@H](C)CO)C(=O)c2cccc(NS(C)(=O)=O)c2O[C@@H]1CN(C)S(C)(=O)=O", "relative growth": "inactive: 0.996"},
      {"smiles": "c1cn(-c2ccc(-n3ccnc3)nn2)cn1", "relative growth": "inactive: 0.951"},
      {"smiles": "C[C@H](CO)N1C[C@H](C)[C@@H](CN(C)C(=O)Nc2ccc(F)cc2)Oc2ncc(Br)cc2C1=O", "relative growth": "inactive: 0.981"},
      {"smiles": "Cc1[nH]c(=O)[nH]c(=O)c1S(=O)(=O)N1CCC(C(=O)N[C@H](C)c2ccccc2)CC1", "relative growth": "inactive: 0.991"},
      {"smiles": "C[C@H](CO)N1C[C@H](C)[C@H](CN(C)C(=O)Nc2ccc3c(c2)OCO3)Oc2cc(C#Cc3cccnc3)ccc2S1(=O)=O", "relative growth": "inactive: 0.991"},
      {"smiles": "Cc1noc(C)c1NC(=O)Nc1cccc2c1O[C@@H](CN(C)Cc1ccc(C(F)(F)F)cc1)[C@@H](C)CN([C@H](C)CO)C2=O", "relative growth": "inactive: 0.984"},
      {"smiles": "C[C@@H]1CN([C@H](C)CO)S(=O)(=O)c2ccc(Br)cc2O[C@@H]1CN(C)Cc1ccc(C(=O)O)cc1", "relative growth": "inactive: 0.979"},
      {"smiles": "COc1ccc(S(=O)(=O)N(C)C[C@@H]2OCCCC[C@@H](C)Oc3ccc(NS(=O)(=O)c4cn(C)cn4)cc3C(=O)N([C@H](C)CO)C[C@@H]2C)cc1", "relative growth": "inactive: 1.01"},
      {"smiles": "C=C(CC)ON=c1[nH]c(=O)c2ncn([C@@H]3O[C@H]4CO[PH](O)(O)O[C@H]4[C@H]3OC(=O)CCC)c2[nH]1", "relative growth": "inactive: 0.99"},
      {"smiles": "CC(C)N1C[C@H](C)[C@@H](CN(C)Cc2ccccc2Cl)Oc2c(NC(=O)c3ccncc3)cccc2C1=O", "relative growth": "inactive: 1.04"},
      {"smiles": "COCC#Cc1cnc2c(c1)C(=O)N([C@@H](C)CO)C[C@H](C)[C@@H](CN(C)S(=O)(=O)c1cccc(OC)c1)O2", "relative growth": "inactive: 1"},
      {"smiles": "C[C@@H]1CCCCO[C@@H](CN(C)S(=O)(=O)c2ccc(F)cc2)[C@H](C)CN([C@H](C)CO)C(=O)c2cc(NC(=O)Nc3ccc(C(F)(F)F)cc3)ccc2O1", "relative growth": "inactive: 1.02"},
      {"smiles": "C[C@@H]1CN([C@H](C)CO)C(=O)c2cc(NC(=O)c3ccncc3)ccc2O[C@@H]1CN(C)Cc1ccc(Oc2ccccc2)cc1", "relative growth": "inactive: 0.993"},
      {"smiles": "C[C@H]1CN([C@@H](C)CO)C(=O)c2cc(NS(C)(=O)=O)ccc2O[C@@H]1CN(C)C(=O)Nc1ccc2c(c1)OCO2", "relative growth": "inactive: 0.982"},
      {"smiles": "CCOC(=O)Cc1c(C)[nH]c(SC)nc1=O", "relative growth": "inactive: 0.99"},
      {"smiles": "COCCOC(=O)N1C(=O)[C@@]2(c3cc(C#CC4=CCCCC4)ccc31)[C@H](C(=O)N1CCc3cc(OC)c(OC)cc3C1)[C@H]1C(=O)O[C@H](c3ccccc3)[C@H](c3ccccc3)N1[C@@H]2c1ccccc1OCCO", "relative growth": "inactive: 1.08"},
      {"smiles": "C[C@H](O)c1nc(=O)c2ccccc2[nH]1", "relative growth": "inactive: 0.997"},
      {"smiles": "C[C@@H]1CN([C@@H](C)CO)C(=O)c2cc(NS(=O)(=O)c3cn(C)cn3)ccc2O[C@H]1CN(C)CC1CCCCC1", "relative growth": "inactive: 1.02"},
      {"smiles": "COCC#Cc1cnc2c(c1)C(=O)N([C@H](C)CO)C[C@H](C)[C@@H](CN(C)C(=O)c1ccc3c(c1)OCO3)O2", "relative growth": "inactive: 0.993"},
      {"smiles": "CC(C)[C@@H](N)C(=O)O", "relative growth": "inactive: 0.997"},
      {"smiles": "C[C@H](CO)N1C[C@H](C)[C@@H](CN(C)C(=O)CCCN(C)C)OCCCC[C@H](C)Oc2ccc(N(C)C)cc2C1=O", "relative growth": "inactive: 1.01"},
      {"smiles": "C[C@H](CO)N1C[C@H](C)[C@@H](CN(C)C(=O)c2ccncc2)Oc2cc(-c3cccc(C#N)c3)ccc2S1(=O)=O", "relative growth": "inactive: 1.01"},
      {"smiles": "C[C@H]1CCCCO[C@@H](CN(C)C(=O)c2ccccc2)[C@@H](C)CN([C@@H](C)CO)C(=O)c2cc(NC(=O)NC3CCCCC3)ccc2O1", "relative growth": "inactive: 0.951"},
      {"smiles": "C[C@H](CO)N1C[C@H](C)[C@H](CN(C)C(=O)Nc2cccc3ccccc23)Oc2c(NC(=O)Nc3ccc(F)cc3)cccc2C1=O", "relative growth": "inactive: 0.968"},
      {"smiles": "C[C@@H]1CCCCO[C@H](CN(C)C(=O)Nc2ccc(F)cc2)[C@H](C)CN([C@@H](C)CO)C(=O)c2cc(NC(=O)Cc3ccccc3)ccc2O1", "relative growth": "inactive: 0.99"},
      {"smiles": "C[C@@H]1CN([C@H](C)CO)C(=O)Cc2cc(NC(=O)Nc3ccc(F)cc3)ccc2O[C@@H]1CN(C)CC1CCCCC1", "relative growth": "inactive: 0.997"},
      {"smiles": "C[C@H]1CN([C@@H](C)CO)C(=O)c2cccc(NS(=O)(=O)c3cccs3)c2O[C@@H]1CN(C)S(=O)(=O)c1ccc(F)cc1", "relative growth": "inactive: 1.02"},
      {"smiles": "COc1ccc(NC(=O)N(C)C[C@@H]2Oc3ncc(C#CCN(C)C)cc3C(=O)N([C@H](C)CO)C[C@@H]2C)cc1", "relative growth": "inactive: 1.01"},
      {"smiles": "Cc1ccc(S(=O)(=O)N(C)C[C@@H]2OCCCC[C@@H](C)Oc3ccc(NC(=O)Nc4cccc5ccccc45)cc3C(=O)N([C@@H](C)CO)C[C@H]2C)cc1", "relative growth": "inactive: 1.03"},
      {"smiles": "COc1ccc(S(=O)(=O)N(C)C[C@H]2OCCCC[C@H](C)Oc3ccc(NC(=O)NC4CCCCC4)cc3C(=O)N([C@H](C)CO)C[C@@H]2C)cc1", "relative growth": "inactive: 1.03"},
      {"smiles": "COc1ccc(NC(=O)Nc2cccc3c2O[C@@H](CN(C)S(=O)(=O)c2cn(C)cn2)[C@H](C)CN([C@@H](C)CO)C3=O)cc1", "relative growth": "inactive: 0.987"}
    ]}
  ]
}
